These are yes or no findings as the source states them, for the method shown. For part of these data: In cells and extracts the contact can be indirect. Some results given as binding are weak or reduced against the parent protein; the word gives no strength. For part of these data: Where a sequence is shown, tags or fusion partners need not be part of it. Values belong to the binder of their own block, whether it stands above or below them.
What was measured:
[1] = molecular target: FLAVIN-BINDING KELCH REPEAT F-BOX1 (FKF1), full length, fused to LexA in bait vector pB29 (A. thaliana) (UniProt Q9C9W9); assay: two-hybrid; yeast two-hybrid of FKF1 with JAC1 or THRUMIN1; constructs and vectors not told
[2] = molecular target: full length CERK1 fused to a split Venus domain (VYCE or VYNE) (Arabidopsis thaliana) (UniProt A8R7E6); assay: split reporter; BiFC with split Venus (VYNE and VYCE), transient expression in Nicotiana benthamiana leaves by Agrobacterium infiltration, fluorescence microscopy after 3-5 days
[3] = molecular target: full length FKF1 fused to the N-terminal domain (VYNE) of the Venus protein (A. thaliana) (UniProt Q9C9W9); assay: as above
[4] = molecular target: FLAVIN-BINDING KELCH REPEAT F-BOX1 (FKF1), full length, fused to LexA in bait vector pB29 (A. thaliana) (UniProt Q9C9W9); assay: two-hybrid; pairwise tests: FKF1 or its domains before LexA in bait vector pB29, preys after the GAL4 activation domain in pP6; diploid yeast from L40deltaGal4 and Y187; growth on -Leu -Trp -His medium
[5] = molecular target: FLAVIN-BINDING KELCH REPEAT F-BOX1 (FKF1), full length, fused to LexA in bait vector pB29 (A. thaliana) (UniProt Q9C9W9); assay: two-hybrid; genome-wide library screen (ULTImate Y2H, Hybrigenics): FKF1-LexA bait in pB29 against a random-primed cDNA library of one-week-old A. thaliana seedlings in pP6; mating of YHGX13 and L40deltaGal4; His+ colonies on medium lacking tryptophan, leucine and histidine

Sequences of proteins named here, by UniProt entry; tags and fusion partners are left off.
UniProt Q9C9W9: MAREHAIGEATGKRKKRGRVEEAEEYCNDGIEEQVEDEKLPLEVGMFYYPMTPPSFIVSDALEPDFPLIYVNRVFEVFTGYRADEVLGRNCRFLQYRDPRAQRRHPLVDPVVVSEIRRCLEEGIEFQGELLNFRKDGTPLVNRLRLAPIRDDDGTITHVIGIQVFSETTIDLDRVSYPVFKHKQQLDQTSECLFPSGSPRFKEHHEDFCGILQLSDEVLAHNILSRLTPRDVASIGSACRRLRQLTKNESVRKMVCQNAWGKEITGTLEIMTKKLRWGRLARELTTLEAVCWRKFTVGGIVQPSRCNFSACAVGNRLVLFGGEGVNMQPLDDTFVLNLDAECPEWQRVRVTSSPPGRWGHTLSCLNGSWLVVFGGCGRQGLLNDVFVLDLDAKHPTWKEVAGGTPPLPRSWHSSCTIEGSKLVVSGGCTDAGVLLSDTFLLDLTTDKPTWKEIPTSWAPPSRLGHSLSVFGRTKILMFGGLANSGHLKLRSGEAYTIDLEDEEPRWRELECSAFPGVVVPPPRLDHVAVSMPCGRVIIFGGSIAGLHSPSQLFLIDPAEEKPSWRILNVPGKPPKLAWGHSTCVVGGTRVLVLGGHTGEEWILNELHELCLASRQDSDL

B1: JAC1 (J-domain protein required for chloroplast accumulation response 1) (protein, UniProt Q9C9Q4 1-651)
chain: MQTLPSSETVLLGSNSAPPVLRSPGGDDVDIDFGDVFGGPPKRRSKVTSNEVTRHSFSESALRRRDVIVDVGDLLPQDEKPVFGEDTSSVRRRFTTDDFFDDIFRVNESSSLPGSRILSPAHKPESSSGTSSPSQFSLPAKATEIPTFNLAATRSLNKNKETVSSSPLSRTSSKADVVSTAKSYSDDCDDPPQVFVTGKGRQFHFSIYKWPNKGVPVVIWGSSRLSSMSKAEETTPVPLSDYRKTSVVEKLGKNEEGDGKSGLSGLKDVKKTSLKRPGVQTKEEKTETDLKSEQAFFGVSKAREANVKPLDSVESEQAFSGVSKAHEATTVKPLHSIFHEEDERQDEKIVSEREVRKGKSKAKNTRSFTEDSRTKKKSQGTKSSLDSSPIPDKSSFASSSAAPEVGKDGVKGKVSDFVKIFSKGASVGAGGESLGQSSRWRAKETPKTDIIHDGSNAKETVNIPDQQKKSTPDIPAMNRDQKPSQSTQKKDSDRESMNYKAPGDTVQEERQEPSTTHTTSEDIDEPFHVNFDVEDITQDENKMEEANKDAEEIKNIDAKIRKWSSGKSGNIRSLLSTLQYILWSGSGWKPVPLMDMIEGNAVRKSYQRALLILHPDKLQQKGASANQKYMAEKVFELLQEAWDHFNTLGPV
- binding [1]: no binding

B2: full length CERK1 fused to a split Venus domain (VYCE or VYNE) (receptor, UniProt A8R7E6 24-617)
chain: KCRTSCPLALASYYLENGTTLSVINQNLNSSIAPYDQINFDPILRYNSNIKDKDRIQMGSRVLVPFPCECQPGDFLGHNFSYSVRQEDTYERVAISNYANLTTMESLQARNPFPATNIPLSATLNVLVNCSCGDESVSKDFGLFVTYPLRPEDSLSSIARSSGVSADILQRYNPGVNFNSGNGIVYVPGRDPNGAFPPFKSSKQDGVGAGVIAGIVIGVIVALLLILFIVYYAYRKNKSKGDSFSSSIPLSTKADHASSTSLQSGGLGGAGVSPGIAAISVDKSVEFSLEELAKATDNFNLSFKIGQGGFGAVYYAELRGEKAAIKKMDMEASKQFLAELKVLTRVHHVNLVRLIGYCVEGSLFLVYEYVENGNLGQHLHGSGREPLPWTKRVQIALDSARGLEYIHEHTVPVYVHRDIKSANILIDQKFRAKVADFGLTKLTEVGGSATRGAMGTFGYMAPETVYGEVSAKVDVYAFGVVLYELISAKGAVVKMTEAVGEFRGLVGVFEESFKETDKEEALRKIIDPRLGDSYPFDSVYKMAELGKACTQENAQLRPSMRYIVVALSTLFSSTGNWDVGNFQNEDLVSLMSGR
- binding [2]: binds

B4: CHUP1 C-terminal (aa707-aa1004) in prey vector pP6 (domain or fragment, UniProt Q9LI74 707-1004)
chain: ALGRGAGGGNKVHRAPELVEFYQSLMKRESKKEGAPSLISSGTGNSSAARNNMIGEIENRSTFLLAVKADVETQGDFVQSLATEVRASSFTDIEDLLAFVSWLDEELSFLVDERAVLKHFDWPEGKADALREAAFEYQDLMKLEKQVTSFVDDPNLSCEPALKKMYKLLEKVEQSVYALLRTRDMAISRYKEFGIPVDWLSDTGVVGKIKLSSVQLAKKYMKRVAYELDSVSGSDKDPNREFLLLQGVRFAFRVHQFAGGFDAESMKAFEELRSRAKTESGDNNNNNNNNSNEEESVN
- binding [4]: binds

Second part, the binder after the results:

- binding [3]: binds
B3: full-length CHUP1 protein fused to the C-terminal domain (VYCE) of the Venus protein (protein, UniProt Q9LI74 1-1004)
chain: MFVRIGFVVAASIAAVTVKRLNVKPSKPSKPSDNGEGGDKEQSVDPDYNLNDKNLQEEEEEEEEEVKLINSVINQTRGSFSDYLDDDILPEFEDLLSGEIEYPLPDDDNNLEKAEKERKYEVEMAYNDGELERLKQLVKELEEREVKLEGELLEYYGLKEQESDIVELQRQLKIKTVEIDMLNITINSLQAERKKLQEELSQNGIVRKELEVARNKIKELQRQIQLDANQTKGQLLLLKQHVSSLQMKEEEAMNKDTEVERKLKAVQDLEVQVMELKRKNRELQHEKRELSIKLDSAEARIATLSNMTESDKVAKVREEVNNLKHNNEDLLKQVEGLQMNRFSEVEELVYLRWVNACLRYELRNYQTPAGKISARDLSKNLSPKSQAKAKRLMLEYAGSERGQGDTDLESNYSQPSSPGSDDFDNASMDSSTSRFSSFSKKPGLIQKLKKWGKSKDDSSVQSSPSRSFYGGSPGRLSSSMNKQRGPLESLMIRNAGESVAITTFGQVDQESPGTPETPNLPRIRTQQQASSPGEGLNSVAASFHVMSKSVDNVLDEKYPAYKDRHKLAVEREKHIKHKADQARAERFGGNVALPPKLAQLKEKRVVVPSVITATGDQSNESNESNEGKASENAATVTKMKLVDIEKRPPRVPRPPPRSAGGGKSTNLPSARPPLPGGGPPPPPPPPGGGPPPPPGGGPPPPPPPPGALGRGAGGGNKVHRAPELVEFYQSLMKRESKKEGAPSLISSGTGNSSAARNNMIGEIENRSTFLLAVKADVETQGDFVQSLATEVRASSFTDIEDLLAFVSWLDEELSFLVDERAVLKHFDWPEGKADALREAAFEYQDLMKLEKQVTSFVDDPNLSCEPALKKMYKLLEKVEQSVYALLRTRDMAISRYKEFGIPVDWLSDTGVVGKIKLSSVQLAKKYMKRVAYELDSVSGSDKDPNREFLLLQGVRFAFRVHQFAGGFDAESMKAFEELRSRAKTESGDNNNNNNNNSNEEESVN

- binding [4]: binds
- binding [5]: binds
B5: CHUP1 C-terminus (partial), aa707-aa937, in prey vector pP6 (domain or fragment, UniProt Q9LI74 707-937)
chain: ALGRGAGGGNKVHRAPELVEFYQSLMKRESKKEGAPSLISSGTGNSSAARNNMIGEIENRSTFLLAVKADVETQGDFVQSLATEVRASSFTDIEDLLAFVSWLDEELSFLVDERAVLKHFDWPEGKADALREAAFEYQDLMKLEKQVTSFVDDPNLSCEPALKKMYKLLEKVEQSVYALLRTRDMAISRYKEFGIPVDWLSDTGVVGKIKLSSVQLAKKYMKRVAYELDSV
